Assay results published in PubChem BioAssay AID463173 (ICCB-Longwood Screening Facility, Harvard Medical School, 2010).
Among all 52,000 compounds or so, about 4,300 (8.3%) were called active. No stated cut-off is given here; in the data, active means survival mostly below about 52% (no sharp cut-off); inactive means mostly above about 56%. Some of the results follow.

System: DeltatarO mutant
Experiment: S. aureus survival, RN4220 and DeltatarO strains – OD600, teichoic acid synthesis inhibitors, primary screen (AID 463173)
Settings: S. aureus RN4220 wild type/DeltatarO growth, OD600, 18 h, hits give low values, screened at 18.75 µg/mL (by protocol)

SMILES	survival
COc1ccccc1NC(=O)N1CCNCC1	inactive: 73%
O=C(c1ccc2c(c1)OCCO2)N(Cc1cccnc1)c1nc2c(F)cccc2s1	inactive: 75%
Cc1cccc(-c2noc(CN(C(=O)c3ccccc3Cl)C(C)C)n2)c1	inactive: 62%
Cn1c(C(=O)NCCc2ccccc2)cc2c(=O)n3ccccc3nc21	active: 48%
COc1ccc(CCNC(=O)CCCn2c(=O)c3ccccc3n(Cc3ccc(F)cc3Cl)c2=O)cc1OC	inactive: 102%
Cc1ccc(N2CC(NC(=O)c3ccc(S(=O)(=O)N4CCOCC4)cc3)CC2=O)cc1C (centres undefined)	inactive: 118%
Cc1cc2oc(=O)c(CC(=O)O)c(C)c2c2occ(-c3ccc(F)cc3)c12	inactive: 49%
c1csc(C2=NC(c3ccncc3)=Nc3ccccc3N2)c1	inactive: 93%
Cc1ccc(-n2ncc(C(=O)NCCCN3CCN(c4cccc(Cl)c4)CC3)c2-n2cccc2)cc1	inactive: 75%
O=C(CSC1=Nc2ccccc2N=C(c2ccc(F)cc2)C1)NCc1ccccc1	inactive: 120%
CCOc1ccc(C(=O)NCCc2sc3nc(-c4ccc(Cl)cc4)nn3c2C)cc1OCC	inactive: 89%
O=C(NCCc1ccc(Cl)cc1)c1ccc(Cn2c(=O)c3cccn3c3cccnc32)cc1	active: 43%
CC1CCCN(Cc2cn3c(-c4cccc(Br)c4)nnc3s2)C1 (centres undefined)	inactive: 75%
Cc1ccc(CNc2nc3ccccc3c3nc(-c4cccc(C)c4)nn23)cc1	active: 18%
CCCSc1oc(-c2cccs2)nc1S(=O)(=O)c1ccc(Cl)cc1	inactive: 65%
O=C(c1cnc(N2CCCCC2)c2ccccc12)N1CCN(c2ccccc2F)CC1	inactive: 75%
Cc1ccc2c(c1)c1c(c(=O)n(Cc3ccccc3)c(=O)n1Cc1cccc(C(F)(F)F)c1)n2C	inactive: 83%
CC(=O)Nc1ccc2c(c1)C(=O)N(c1ccccc1)C2=O	inactive: 90%
COc1ccc(CNC(=O)CCc2c(C)nn(-c3ccc(N4CCCCC4)nn3)c2C)c(OC)c1	active: 52%
CC(NC(=O)c1cccc(NC(=O)c2nsc3ccccc23)c1)c1ccccc1 (centres undefined)	inactive: 115%
COc1ccc2c(c1)Cc1sc(NC(=O)c3cccc(F)c3)nc1-2	inactive: 67%
CCCC(=O)Nc1cc(-c2nc3cccnc3s2)ccc1C	inactive: 109%
Cc1ccc(NC(=O)NCC2CCN(Cc3cccc(Cl)c3)CC2)cc1Cl	active: -5%

SMILES	survival
COCc1cc(C)n(CC(N)=O)c(=O)c1C#N	inactive: 88%
CCc1cccc(NC(c2nnc(-c3ccccc3)o2)c2ccc(F)cc2Cl)c1 (centres undefined)	inactive: 83%
CCOC(=O)c1ccc(NC(=O)C2CC(=O)N(c3ccc(C(C)C)cc3)C2)cc1 (centres undefined)	inactive: 83%
CC(C)c1c(O)nc(SCCC(=O)O)[nH]c1=O	inactive: 88%
Cc1ccccc1OCC(=O)Nc1ccc2nc(SCCOc3ccccc3)sc2c1	inactive: 99%
Cc1ccc(C)c(Cn2c(SCC(=O)N(C)Cc3ccccc3)nc3ccccc32)c1	inactive: 94%
Cc1ccc(C)c(N2CCN(C(=O)CCCCCn3c(=O)[nH]c4ccccc4c3=O)CC2)c1	inactive: 78%
CCOc1ccc(-c2cc(C(=O)N3CCN(c4cccc(C)c4)C(C)C3)c3ccccc3n2)cc1 (centres undefined)	inactive: 89%
Cc1ccc(-c2nnc(Nc3ccc(S(N)(=O)=O)cc3)c3ccccc23)cc1S(=O)(=O)N1CCOCC1	inactive: 61%
CCc1ccccc1NC(=O)C(=O)NCC(c1cccnc1)N1CCc2ccccc21 (centres undefined)	inactive: 58%
CN(C)S(=O)(=O)c1ccc(NC(=O)Cn2c(-c3ccccc3)noc2=O)cc1	inactive: 80%
CCOc1ccc(NC(=O)CSc2ncc3c(n2)-c2cc(Cl)ccc2N(C)S3(=O)=O)cc1	active: 0%
Cc1ccc2cccc(NC(=O)C(C)Oc3ccc(C)c(C)c3)c2n1 (centres undefined)	inactive: 56%
CC1=C(C(=O)NCc2ccc(C)cc2)C2(CCCCC2)OC1=O	inactive: 66%
O=C(Nc1cc(Cl)ccc1Cl)C1(c2cccs2)CCOCC1	inactive: 82%
Cc1noc(Cn2c(=O)c3ccccc3n(CC(=O)Nc3ccc(Cl)cc3)c2=O)n1	inactive: 78%
Cc1cccc(NC(=O)CCNS(=O)(=O)c2cccc3nonc23)c1	active: 44%
CCOc1ccc(NS(=O)(=O)c2ccc3[nH]cc(C(=O)NC4CCCC4)c(=O)c3c2)cc1	active: 39%
CCOc1ccc(C(=O)c2cn(Cc3ccc(OC)cc3)c3cc(OC)c(OC)cc3c2=O)cc1	inactive: 88%
CCn1c(C(C)C)n[nH]c1=S	inactive: 80%
COc1cccc(-n2c(-c3ccco3)nc3c(cnn3-c3ccc(C)cc3)c2=O)c1	active: 52%
CCN1CCCC1CNC(=O)c1c(O)c2c([nH]c1=O)CCCC2 (centres undefined)	inactive: 99%
O=C(Nc1ncc(Cc2ccc(Cl)cc2)s1)c1ccc2c(c1)CC(c1ccccc1)OC2=O (centres undefined)	inactive: 71%

SMILES	survival
CN1C(=O)C(O)N(c2ccc(Cl)c(Cl)c2)C1=O (centres undefined)	inactive: 108%
COc1ccc(Nc2ncc(C(=O)Nc3cc(Cl)c(OC)cc3OC)c3ccccc23)cc1	inactive: 72%
Cc1ccc(C)c(C2C(C#N)=C(N)OC3=C2C(=O)CCC3)c1 (centres undefined)	inactive: 68%
CN(C)c1ccc(C(CNS(=O)(=O)c2ccc(F)cc2)N2CCCC2)cc1 (centres undefined)	inactive: 106%
O=C(CCS(=O)(=O)c1nc(-c2ccc3c(c2)OCO3)cc(C(F)(F)F)n1)Nc1ccc(F)c(Cl)c1	active: 23%
COc1ccc(N2CCN(C(=O)c3ccc(Nc4nc5ccccc5n5nnnc45)cc3)CC2)cc1	inactive: 80%
O=c1c2cc3c(cc2n(Cc2cccc(Cl)c2)c(=O)n1Cc1nc(-c2ccccc2)no1)OCO3	inactive: 61%
CCOc1ccccc1C(=O)Nc1ccccc1	inactive: 65%
CC(=O)N1CCCc2cc(S(=O)(=O)N3CCCC(C(=O)Nc4cccc(F)c4)C3)ccc21 (centres undefined)	inactive: 87%
COc1ccc(NC(=O)CCNS(=O)(=O)c2cccc3nonc23)c(OC)c1	active: 50%
CCOc1ccccc1NC(=O)CSc1ncc(S(=O)(=O)c2ccc(C(C)(C)C)cc2)c(=O)[nH]1	inactive: 58%
O=C(CN(C(=O)Cn1nnc(-c2ccc(F)cc2)n1)c1ccccc1C(F)(F)F)NCc1ccco1	inactive: 98%
CCCCNC(=O)CCn1c(=O)c2cccn2c2ccc(F)cc21	active: 41%
CC1(C)Cc2ccccc2-c2nnc(-c3ccccc3)n21	inactive: 98%
O=C1CN=C(Nc2cccc(C(F)(F)F)c2)N1C1CCCC1	inactive: 105%
COc1cccc(CNC(=O)CSc2nc3ccccc3nc2Cc2ccc(C)cc2)c1OC	inactive: 74%
Cc1ccc(NC(=O)CCNS(=O)(=O)c2ccc3c(c2)CCN3C(=O)C2CC2)c(Cl)c1	inactive: 83%
CCCn1c2ccccc2c2cnn(CC(=O)NCCc3ccc(OCC)c(OCC)c3)c(=O)c21	inactive: 92%
CCOC(=O)CNC(=O)c1cc2c(=O)n3cccc(C)c3nc2s1	inactive: 179%
COc1cccc(C2CC(=O)Nc3c2c(=O)nc2c(C)cccn32)c1 (centres undefined)	inactive: 70%
CCOCCCNC(=O)Cn1cc2c(n1)-c1c(oc(C(=O)N3CCCC3)c1C)CC2	inactive: 77%
COc1c(Cl)cc(Cl)cc1/C=C(\C#N)c1nc(-c2ccc(Cl)cc2)cs1	inactive: 122%
COc1ccc(-c2cc(-c3ccc4c(c3)NC(=O)CO4)nc3c2COc2ccc(C)cc2-3)cc1	inactive: 86%

SMILES	survival
CCc1ccccc1NC(=O)c1cnn(-c2ccc(F)cc2)c1C1CCNCC1	inactive: 80%
Cc1c(NC(=O)C(F)(F)F)ccc2nc3c(=O)n(C)c(=O)n(C)c3nc12	inactive: 79%
Cc1cccc(OCCOCCn2c(-c3ccc(Cl)cc3)nc3ccccc3c2=O)c1C	inactive: 60%
Cc1ccccc1NC(=O)c1ccc(F)c(S(=O)(=O)N2CCc3ccccc3C2)c1	inactive: 61%
COC(=O)Cn1ccc2cc(S(=O)(=O)N3CCCCC3)ccc21	inactive: 93%
Cc1cc(C)c(S(=O)(=O)N2CCC(N3CCN(Cc4ccc(F)cc4)C(=O)C3=O)CC2)c(C)c1	inactive: 83%
CC(C)c1ccc(NC(=O)c2cnn3c(C(F)F)cc(-c4ccccc4)nc23)cc1	inactive: 65%
Cc1ccc(C(C)C)c(OCCCn2c(=O)oc3ccc(C)cc32)c1	active: -5%
CCc1ccccc1NC(=O)Cn1nnc(C(=O)Nc2ccc(OC)c(OC)c2)c1N	inactive: 95%
CCOc1cccc(C(=O)Nc2ccc(-c3nc4cc(C)cc(C)c4o3)cc2)c1	inactive: 115%
CCCCN(Cc1ccco1)C(=O)c1cc2c(s1)-c1c(C)cccc1OC2	active: -2%
Cc1cccc(NC(=O)c2oc3ccc(S(=O)(=O)N(C)C4CCCCC4)cc3c2C)c1C	inactive: 104%
CCc1ccc(S(=O)(=O)N2CCN(c3ccc(Cl)c(Cl)c3)CC2)cc1	inactive: 118%
CCOC(=O)c1ccccc1NC(=O)c1nn(-c2ccc(C)cc2)c(=O)n(C)c1=O	inactive: 79%
CCCS(=O)(=O)N1CC(=O)N(c2cc(C)cc(C)c2)C(C)(C(=O)NC2CCCCCC2)C1 (centres undefined)	inactive: 81%
N#Cc1ccc(NC(=O)c2ccc3c(c2)nnn3C2CCCC2)cc1	inactive: 126%
CCOC(=O)N1CCC(NC(=O)c2cnn(-c3ccc(C)cc3)c2C2CCN(C(=O)OC(C)(C)C)CC2)CC1	inactive: 88%
COc1ccc(-n2c(SCc3nc(-c4ccc(Cl)cc4)no3)nnc2-c2ccncc2)cc1	active: 49%
COc1ccc(Nc2oc(-c3ccc(COc4ccccc4)o3)nc2C#N)cc1	inactive: 100%
CCOc1ccccc1C(=O)Nc1cc(-c2nc3cccnc3s2)ccc1C	active: 37%
